The whole screen tested about 410,000 compounds, of which about 6,400 (1.6%) were called active. The inconclusive results got no clear call from the source; some entries with a clear call stand among them for comparison. Calls come from the whole dose curve; as a rule, active = well fitted inhibition curve with a large enough effect; inconclusive = small, poorly fitted or top-dose-only effect; inactive = no such curve, though single readings can be large or run the other way. A potency beside an inconclusive call is a rough fit, not a confirmed value.
molecular target: Glucagon-like peptide 1 receptor (Homo sapiens) (UniProt P43220); test: qHTS of GLP-1 Receptor Inverse Agonists (Inhibition Mode); conditions: HEK293 GLP-1R CRE-luciferase, luminescence, 24 h, GLP-1R form is constitutively active; series mostly up to 38.3 µM; note: nearly all actives have a fitted effect of over 55% in size
UniProt P43220, sequence (P43220 whole entry, looked up): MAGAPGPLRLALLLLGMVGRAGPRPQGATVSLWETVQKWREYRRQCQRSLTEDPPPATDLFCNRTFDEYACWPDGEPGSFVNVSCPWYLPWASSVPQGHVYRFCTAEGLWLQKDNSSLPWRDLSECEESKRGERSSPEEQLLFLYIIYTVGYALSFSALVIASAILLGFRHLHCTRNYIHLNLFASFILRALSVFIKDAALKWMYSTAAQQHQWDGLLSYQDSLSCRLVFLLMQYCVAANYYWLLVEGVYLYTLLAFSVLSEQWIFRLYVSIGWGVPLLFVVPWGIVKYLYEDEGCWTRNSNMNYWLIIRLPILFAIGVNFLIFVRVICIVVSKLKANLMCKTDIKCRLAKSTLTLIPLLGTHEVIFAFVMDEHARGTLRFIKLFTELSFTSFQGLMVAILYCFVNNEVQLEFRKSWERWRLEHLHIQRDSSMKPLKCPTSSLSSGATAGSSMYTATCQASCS
Procedure, shortened: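 Luminescence readout: a drop in cAMP-driven luciferase signal flags inverse agonism at a constitutively active GLP-1R stably expressed in HEK293. Compound exposure lasted 24 hr at 37 deg C, 5% CO2.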
Potency is the fitted concentration of half-maximal effect; tags give direction and shape of the fitted curve.

Potency, inactive:
CN(C)S(=O)(=O)c1cccc(-c2nn(-c3ccccc3)cc2/C=C(\C#N)c2nc3ccccc3[nH]2)c1
Cc1cccc(C)c1N(CC(=O)N1CCN(c2ccccc2F)CC1)S(C)(=O)=O
COc1ccc(NC(=O)CSc2nc(O)c(C/C=C/c3ccccc3)c(=O)[nH]2)cc1
Cn1c(=O)n(CC(N)=O)c(=O)c2c1nc(Br)n2Cc1ccccc1
Cc1ccc2c(c1)c(=O)c(C(=O)c1ccncc1)cn2CC(=O)Nc1ccccc1Cl
O=C(NCC1CCCO1)C1CCCN(S(=O)(=O)c2ccc(F)cc2)C1 (stereo not given)
Cc1c(N2C(=O)/C(=C\c3ccc(N(C)C)cc3)N(C)C2=S)c(=O)n(-c2ccccc2)n1C
O=C(CSc1nnc(C2CC2)n1C1CC1)c1ccc(Br)s1
Cn1c(=O)n(Cc2ccccc2)c(=O)c2c1nc1n2CCCN1C1CCCCC1
O=C1CCN1C1(C(=O)NC2CCCCC2)CCCC1
C=Cc1ccc(Cn2c(=O)n(-c3ccc(C)cc3)c(=O)c3c2c2cc(OC)ccc2n3C)cc1
O=C(NCc1ccccc1)C1CCN(C(=O)c2cnn(-c3ccccc3)c2-n2cccc2)CC1
Cc1nnc(-c2ccc(N3CCCCCC3)c([N+](=O)[O-])c2)o1
C(=N\n1cnnc1)/c1ccc(OCc2cccc3ccccc23)cc1
CSc1ccc(CCNC(=O)C2CCN(c3nnc(-n4cccc4)s3)CC2)cc1
CCOc1cc(CN2CCN(c3ccc(C(C)=O)cc3)CC2)ccc1OC

Potency, active:
CCC(c1nnnn1CCc1ccccc1)N(Cc1ccco1)Cc1cc2c(C)ccc(C)c2[nH]c1=O (stereo not given) 11.2 µM
Cc1ccc(S(=O)(=O)N2CCCCC2)cc1NC(=O)COC(=O)C1(C)CC1(Cl)Cl (stereo not given) 7.94 µM
CCCCCNC(=O)C(CCc1ccccc1)n1c(=O)c(-c2cc3ccccc3[nH]2)nc2ccccc21 (stereo not given) 3.55 µM

Potency, inconclusive:
CCC(C(=O)Nc1cccc(C(F)(F)F)c1)c1ccccc1 (stereo not given) 11.2 µM [inhibitor, partial curve, poor fit]
N#C/C(=N\Nc1ccccc1)C(=N)N1CCCCC1 28.2 µM [inhibitor, single point]
O=C(O)c1ccccc1Nc1ccc([N+](=O)[O-])cc1 2.24 µM [inhibitor, full curve, poor fit]
CCOC(=O)C(C(=O)Nc1cccc(C)c1)C1CCCCC1 (stereo not given) 28.2 µM [inhibitor, single point]
c1cnc(N2CCN(Cc3c[nH]c4ccccc34)CC2)nc1 22.4 µM [inhibitor, partial curve, poor fit]
CCCCNC(=O)c1onc(CSc2cccc(Cl)c2)c1C(=O)O 12.6 µM [inhibitor, single point]
COc1cc2oc(=O)cc(CN(Cc3ccccc3)Cc3ccccc3)c2cc1Cl 28.2 µM [inhibitor, single point]
CCCCCC(=O)NC(NC(=S)N1CCOCC1)C(Cl)(Cl)Cl (stereo not given) 10 µM [inhibitor, partial curve]
CCOC(=O)c1cccc(NC(c2nnc(-c3ccccc3)o2)c2ccccc2F)c1 (stereo not given) 10 µM [inhibitor, partial curve, poor fit]
CCOc1ccc(N2C(=O)CC(/C=C3/N(C)c4ccccc4C3(C)C)C2=O)cc1 (stereo not given) 17.8 µM [inhibitor, partial curve, poor fit]
CCOC(=O)C1=C(CCc2ccccc2)NC(=O)NC1c1ccc2ccccc2c1 (stereo not given) 11.2 µM [inhibitor, partial curve, poor fit]
Cc1cc(-c2nc3ccccc3[nH]2)ccc1N 8.91 µM [inhibitor, single point]
COc1ccc(CNc2nc(-c3cccnc3)nn2C(=O)CC(C)C)cc1 5.62 µM [inhibitor, full curve]
CC(=O)c1c(Cl)nc2ccc(Br)cc2c1-c1ccccc1 10 µM [inhibitor, partial curve, poor fit]
C[C@H]1CCCCO[C@@H](CN(C)S(=O)(=O)c2ccc(F)cc2)[C@@H](C)CN([C@@H](C)CO)C(=O)c2cc(NC(=O)Nc3ccc4c(c3)OCO4)ccc2O1 11.2 µM [inhibitor, partial curve]
Nc1nc2c(c(=O)[nH]1)C(c1cccc3ccccc13)C1=C(N2)c2ccccc2C1=O (stereo not given) 7.94 µM [inhibitor, partial curve, poor fit]
Fc1ccccc1CNc1ncnc2sccc12 11.2 µM [inhibitor, single point]
COc1ccc(C=O)cc1COc1ccc2c(c1)OCO2 11.2 µM [inhibitor, single point]
ON=C(c1ccccc1)c1ccc2c3c(cccc13)CC2 11.2 µM [inhibitor, partial curve, poor fit]
CC1=C(C(=O)OCc2ccccc2)C(c2ccco2)C2=C(CC(C)(C)CC2=O)N1 (stereo not given) 28.2 µM [inhibitor, single point]
COc1cc(OC)c2c(-c3cccc(-c4ccoc4)c3)cc(=O)oc2c1 10 µM [inhibitor, partial curve]
NC(=O)Cn1c(=O)n(C2CCCCC2)c(=O)c2c3c(sc21)CCCCC3 2.82 µM [inhibitor, full curve]
c1ccc(Oc2cccc(OCCCCSc3ncccn3)c2)cc1 28.2 µM [inhibitor, single point]
Cc1ccc(CNC(=O)C2CCC(=O)N(CCc3ccc(Cl)cc3)C2)s1 (stereo not given) 10 µM [inhibitor, partial curve, poor fit]
CC1CCN(C(=O)CCn2c(=O)oc3ccc(Cl)cc32)CC1 10 µM [inhibitor, partial curve, poor fit]
Fc1ccc(/C=N/NC(=S)Nc2ccc(Cl)cc2)cc1F 12.6 µM [inhibitor, single point]
C=CCNC(=O)c1onc(CSc2ccccc2)c1C(=O)O 11.2 µM [inhibitor, single point]
CCN(CC)S(=O)(=O)c1cc(C(=O)N(C)CC(=O)Nc2ccc(Cl)cc2)ccc1Cl 12.6 µM [inhibitor, partial curve, poor fit]
Cn1c(C23CC4CC(CC(C4)C2)C3)n[nH]c1=S 11.2 µM [inhibitor, partial curve, poor fit]
Cc1ccc(Cl)cc1-c1cc(C(=O)NCc2cccc(Cl)c2)[nH]n1 28.2 µM [inhibitor, single point]
COc1cccc(-c2c(-c3ccccc3OC)ncn2Cc2cccc(-c3ccccc3)c2)c1 10 µM [inhibitor, partial curve, poor fit]
COc1ccc(CC2(CO)CCN(C(C)COc3ccccc3)CC2)cc1 (stereo not given) 11.2 µM [inhibitor, partial curve, poor fit]
COc1c(C(=O)Nc2ccc(Cc3ccncc3)cc2)ccc2ccccc12 8.91 µM [inhibitor, partial curve, poor fit]
N#CCc1ccccc1C(=O)OCC(=O)N(Cc1ccccc1)Cc1ccccc1 10 µM [inhibitor, partial curve, poor fit]
CC(NC(=O)CSc1ncccn1)c1ccc(Cl)cc1Cl (stereo not given) 11.2 µM [inhibitor, partial curve, poor fit]
O=C(CSc1ncc(C(F)(F)F)cc1Cl)N1CCN(S(=O)(=O)c2ccccc2)CC1 22.4 µM [inhibitor, single point]
O=C(COC(=O)c1c(Cl)cccc1Cl)NC1CCCCCCC1 15.8 µM [inhibitor, single point]
CC(Cc1cccnc1)NC(=O)c1cc(COc2c(F)cccc2F)on1 (stereo not given) 12.6 µM [inhibitor, partial curve, poor fit]
CCCCC1CC2=C(C(=O)OC(C)(C)O2)C(c2cccc3ccccc23)O1 (stereo not given) 20 µM [inhibitor, single point]
CCN1CCN(CCCNC(=O)c2csc3c2CCCCC3)CC1 10 µM [inhibitor, partial curve, poor fit]
CCOC(=O)c1c(NC(=O)/C=C/C(=O)O)sc(C)c1-c1ccc(C)c(C)c1 6.31 µM [inhibitor, full curve, poor fit]
CCC(c1nnnn1-c1ccc2c(c1)OCCO2)N1CCN(c2ccc(C(F)(F)F)cn2)CC1 (stereo not given) 14.1 µM [inhibitor, single point]
Cc1cc(/C=C(\C#N)C(=O)NCc2ccco2)c(C)n1C1CCCC1 28.2 µM [inhibitor, partial curve, poor fit]
CCOC(=O)C(C)On1c(-n2nc(C)cc2C)nc2ccccc2c1=O (stereo not given) 11.2 µM [inhibitor, partial curve, poor fit]
CCC(C)(C)NC(=O)C(c1cccc(OC)c1OC)N(Cc1ccccc1)C(=O)CCC(=O)Nc1cc(C)on1 (stereo not given) 22.4 µM [inhibitor, single point]
CCN(c1cccc2ccccc12)S(=O)(=O)c1ccc(Cl)nc1 22.4 µM [inhibitor, partial curve, poor fit]
